# Measurements published in PubChem BioAssay AID360 (National Center for Advancing Translational Sciences (NCATS), 2006).
# The campaign covered roughly 48,000 compounds. About 550 (1.1%) were called active. Inconclusive results (about 4%) are left out. No stated cut-off is given here; in the data, active means potency below about 15 µM; inconclusive means mostly about 16 µM to 33 µM; inactive means weaker than that. This is one part of the list.
# Biological target: Lysosomal acid glucosylceramidase (Homo sapiens) (UniProt P04062)
# Sequence of UniProt P04062 (P04062 whole entry, looked up): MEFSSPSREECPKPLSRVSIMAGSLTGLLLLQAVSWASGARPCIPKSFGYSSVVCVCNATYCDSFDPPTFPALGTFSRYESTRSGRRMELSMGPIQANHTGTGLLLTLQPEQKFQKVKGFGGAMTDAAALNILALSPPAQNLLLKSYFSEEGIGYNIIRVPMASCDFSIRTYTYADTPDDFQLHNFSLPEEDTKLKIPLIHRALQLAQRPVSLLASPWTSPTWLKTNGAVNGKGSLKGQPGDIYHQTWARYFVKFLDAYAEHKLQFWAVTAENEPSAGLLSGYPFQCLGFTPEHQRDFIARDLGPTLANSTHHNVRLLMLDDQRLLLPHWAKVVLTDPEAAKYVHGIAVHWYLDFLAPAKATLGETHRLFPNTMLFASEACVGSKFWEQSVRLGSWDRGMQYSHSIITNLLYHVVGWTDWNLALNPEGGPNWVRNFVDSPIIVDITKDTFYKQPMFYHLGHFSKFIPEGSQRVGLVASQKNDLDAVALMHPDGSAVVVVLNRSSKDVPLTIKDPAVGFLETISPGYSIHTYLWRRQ
# Test: Glucocerebrosidase;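 further: the screen sought inhibitors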
# Details: purified enzyme, resorufin glucoside fluorescence (screen aimed at inhibitors), 20 min
# In short: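 Compounds titrated against 0.2 nM normal enzyme, 30 uM resorufin beta-D-glucopyranoside substrate, citrate/phosphate buffer with taurocholate and tween-20, pH 5.9. Reaction ran 20 min at room temperature; fluorescence (Ex 548/Em 600) gave AC50.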
# Potency means the concentration at half of the fitted maximal effect.
row,SMILES,Potency
1,CCOC(=O)c1ccc(NC(=O)CN2CCN(c3ccccc3)CC2)cc1,inactive: > 76.9 µM
2,CCC1CCCCN1C(=O)Nc1ccc(F)cc1 (stereo unspecified),inactive: > 76.9 µM
3,COc1cccc(-n2nnc3c(=O)n(CC(=O)NC4CCCC4)cnc32)c1,inactive: > 76.9 µM
4,CCCNC(=O)N1CCN(c2ncccn2)CC1,inactive: > 76.9 µM
5,CC1CCN(C(c2cc3cc4c(cc3[nH]c2=O)OCO4)c2nnnn2CC2CCCO2)CC1 (stereo unspecified),inactive: > 76.9 µM
6,O=C(Nc1ccc2c(c1)nc1n2CCOC1)c1ccccc1,inactive: > 76.9 µM
7,O=C(c1ccc(COc2ccccc2Br)o1)N1CCCCCC1,inactive
8,CC(=O)c1cccc(NS(=O)(=O)c2c(C)n[nH]c2C)c1,inactive: > 76.9 µM
9,COc1ccc(CN2C(=O)c3cccnc3C2Nc2cc(Cl)ccc2OC)cc1 (stereo unspecified),inactive: > 76.9 µM
10,COc1ccc(OC)c(-c2cc(C(=O)NCCCn3ccnc3)no2)c1,inactive
11,O=C(Nc1ccccc1)c1ccc(F)c(S(=O)(=O)N2CCOCC2)c1,inactive: > 76.9 µM
12,CCc1ccc2[nH]c(=O)c(C(c3nnnn3Cc3ccc(OC)cc3)N3CCOCC3)cc2c1 (stereo unspecified),inactive: > 76.9 µM
13,N#Cc1cc2cc3c(cc2nc1N1CCOCC1)OCO3,inactive: > 76.9 µM
14,CCOC(=O)c1ccc(N2C(=O)CC(Sc3nc(O)c(CC)c(=O)[nH]3)C2=O)cc1 (stereo unspecified),inactive: > 76.9 µM
15,O=c1c2ccccc2nc(SCc2nnc(-c3ccccc3Br)o2)n1-c1ccccc1,inactive: > 76.9 µM
16,Cc1ccc(-c2nnc(SCC(=O)N3CCCc4ccccc43)n2N)cc1,inactive: > 76.9 µM
17,CC(NC(=O)c1cc2ccccc2o1)C(=O)O (stereo unspecified),inactive: > 76.9 µM
18,COc1ccc(N2CCCCn3c2nc2c3c(=O)[nH]c(=O)n2C)cc1,inactive: > 76.9 µM
19,Cc1ccc2c(CSc3nnc(C4CC4)n3N)cc(=O)oc2c1C,inactive: > 76.9 µM
20,CCOC(=O)c1cc(C(=O)OCC)c2cc(Br)ccc2n1,inactive: > 76.9 µM
21,CCn1c(SCCOc2ccc(OC)cc2)nnc1C(CO)NC(=O)c1ccc(OC)cc1 (stereo unspecified),inactive: > 76.9 µM
22,O=C(CSc1nnc(CNC(=O)c2c(F)cccc2Cl)o1)Nc1ccc2c(c1)OCCO2,inactive: > 76.9 µM
23,OC(COCC1COc2ccccc2O1)CN1CCc2ccccc2C1 (stereo unspecified),inactive: > 76.9 µM

row,SMILES,Potency
1,Cn1c(=O)c2c(-c3ccccc3)n(CCCN3CCOCC3)cc2n(C)c1=O,inactive: > 76.9 µM
2,CCCC(=O)Nc1ccccc1N1CCN(C(=O)c2ccccc2)CC1,inactive: > 76.9 µM
3,CC1Oc2ccccc2N(Cc2ccccc2F)C1=O (stereo unspecified),inactive: > 76.9 µM
4,COc1ccc(OC)c(NC(=O)c2cc(S(=O)(=O)NCc3ccco3)ccc2F)c1,active: 5.32 µM
5,NS(=O)(=O)c1ccc(CCNc2ncnc3sccc23)cc1,inactive: > 76.9 µM
6,COc1ccccc1NC(=O)CN1CCN(CC(=O)Nc2ccc(OCc3ccccc3)cc2)CC1,active: 10.2 µM
7,O=C(Nc1ccc(NC(=O)c2ccco2)nc1)c1cccnc1,inactive: > 76.9 µM
8,CCOc1cc2c(cc1OCC)C(C(=O)O)C(c1cc(Br)c(O)c(OC)c1)N(C)C2=O (stereo unspecified),inactive: > 76.9 µM
9,Cc1nn(-c2nc3ccccc3[nH]2)c(N)c1-c1ccccc1,inactive: > 76.9 µM
10,O=C(Nc1ccc2c(c1)OCO2)c1c(Cl)nc2sccn12,inactive: > 76.9 µM
11,CC1(C)C(c2ccccc2)=NC(c2ccc(F)cc2)N1O (stereo unspecified),inactive: > 76.9 µM
12,Cc1ccc2c(c1)C(O)(CC(=O)c1cccnc1)C(=O)N2 (stereo unspecified),inactive: > 76.9 µM
13,COc1ccc2c(c1)c(C(=O)CN1CCN(C(=O)c3ccco3)CC1)c(C)n2C,inactive: > 76.9 µM
14,CCOC(=O)C1CCN(CC(=O)Nc2c(C(=O)OC)[nH]c3cccc(C)c23)CC1,inactive: > 76.9 µM
15,Cc1ccc(C2N(c3nccs3)C(=O)C3CCCN32)cc1 (stereo unspecified),inactive: > 76.9 µM
16,CCOC(=O)c1cnc(-n2nc(C)cc2C)nc1NCCc1ccccc1,inactive: > 76.9 µM
17,CSc1nc2ccc(S(=O)(=O)N3CCOCC3)cc2s1,inactive: > 76.9 µM
18,Cc1nc2nc(C)c(CCC(=O)NC(C)c3ccc4c(c3)OCCO4)c(C)n2n1 (stereo unspecified),inactive: > 76.9 µM
19,COc1ccccc1C1CC(c2ccc(C)cc2)Nc2ncnn21 (stereo unspecified),inactive: > 76.9 µM
20,CN1CCN(/C=N/c2c(C#N)cnn2Cc2ccccc2)CC1,inactive: > 76.9 µM
21,c1cc(Nc2ncnc3sccc23)cc(-c2nnc3n2CCCCC3)c1,inactive: > 76.9 µM
22,COC(=O)c1ccc(NC(=O)C2CCCO2)cc1 (stereo unspecified),inactive: > 76.9 µM
23,Nc1nnnn1/N=C/c1ccccc1OCc1ccc(Cl)cc1Cl,inactive: > 76.9 µM

row,SMILES,Potency
1,COc1cccc(-n2c(COc3ccc(C)cc3)nnc2SCC(N)=O)c1,inactive: > 76.9 µM
2,O=C1CCCC2=C1C1(CCCCC1)N=C(Nc1nc3ccccc3s1)N2,inactive: > 76.9 µM
3,O=C(O)c1cc2ccc3ccccc3c2[nH]1,inactive: > 76.9 µM
4,CC(=O)NC(=O)NC1OC(=O)C(Cl)=C1Cl (stereo unspecified),inactive: > 76.9 µM
5,CCc1cc(=O)oc2cc(C)cc(OCc3nn[nH]n3)c12,inactive: > 76.9 µM
6,CS(=O)(=O)c1ccc2nc(NC3(C(F)(F)F)N=C4SCCN4C3=O)sc2c1 (stereo unspecified),inactive: > 76.9 µM
7,COc1ccc(NC(=O)CNc2cccc(C#N)c2)cc1Cl,inactive: > 76.9 µM
8,COc1ccc2c(c1)NC1(O)c3ccccc3C(=O)C21O (stereo unspecified),inactive: > 76.9 µM
9,c1ccc(CSc2nnc(-c3ccco3)n2Cc2ccco2)cc1,inactive: > 76.9 µM
10,CC(C)c1nnc(NC(=O)Cn2nc(-c3ccc4c(c3)OCCO4)ccc2=O)s1,inactive
11,O=C(Nc1ccccc1)c1ccc(NCc2ccco2)c(S(=O)(=O)N2CCOCC2)c1,inactive: > 76.9 µM
12,Cc1ccc(NC(=O)c2nnn(CC(=O)Nc3ccccc3)c2N)cc1C,inactive: > 76.9 µM
13,CCOC(=O)N1CCN(c2cc(C)c(C(C)=O)cc2F)CC1,inactive: > 76.9 µM
14,Cc1ccc(-c2nc(-c3ccccn3)no2)cc1Cl,inactive: > 76.9 µM
15,O=C(CN1CCCN(S(=O)(=O)c2ccc(F)cc2)CC1)Nc1ccccc1Br,inactive: > 76.9 µM
16,CCc1nc(C)cn1S(=O)(=O)c1cc(Br)c(C)cc1OC,inactive: > 76.9 µM
17,CN1C(=O)CC(N2CCN(C(c3ccccc3)c3ccccc3)CC2)C1=O (stereo unspecified),inactive: > 76.9 µM
18,c1ccc(-c2nn3c(C4COc5ccccc5O4)nnc3s2)cc1 (stereo unspecified),inactive: > 76.9 µM
19,COc1cc(CNC2CCCC2)cc(OC)c1OC,inactive: > 76.9 µM
20,CC12CCC3(CO)COC(c4ccccc4O1)C2C3 (stereo unspecified),inactive: > 76.9 µM
21,COc1ccc(S(=O)(=O)Nc2cc(C(C)C)c(O)cc2C)cc1,inactive: > 76.9 µM
22,O=C(Nc1ccccc1)N(CCN1CCOCC1)Cc1cccc(Cl)c1,inactive
23,CSc1nnc([C@H](C)NC(=O)OC(C)(C)C)o1,inactive: > 76.9 µM

row,SMILES,Potency
1,C(=C\c1ccccc1)/CSc1nnc(-c2cnccn2)n1Cc1ccco1,inactive: > 76.9 µM
2,CC(CC(=O)O)NCC1COc2ccccc2O1 (stereo unspecified),inactive: > 76.9 µM
3,O=C(Cn1ccccc1=O)c1cccs1,inactive: > 76.9 µM
4,COc1ccc2c(c1)[nH]c1c(=O)n(CCc3cnc[nH]3)cnc12,inactive: > 76.9 µM
5,O=C(CN(Cc1cccs1)C(=O)CN1C(=O)COc2ccccc21)NCc1ccco1,inactive: > 76.9 µM
6,O=C1C(Cl)=C(NCCCN2CCOCC2)C(=O)N1CCc1ccccc1,active: 11.3 µM
7,Cc1nc2ccc(C(C(F)(F)F)(C(F)(F)F)C(F)(F)F)cc2[nH]1,inactive: > 76.9 µM
8,Nc1nc(SCc2nc3scc(-c4cccs4)c3c(=O)[nH]2)n[nH]1,inactive: > 76.9 µM
9,COC(=O)c1ccccc1S(=O)(=O)N1CCC(c2nc3ccccc3o2)CC1,inactive: > 76.9 µM
10,COC(=O)c1ccccc1NC(=O)c1cc(-c2ccc(OC)c(OC)c2)on1,inactive: > 76.9 µM
11,COCCCN1C(=O)C(=O)/C(=C(/O)c2ccc(OC)cc2)C1c1ccc(O)c(OC)c1 (stereo unspecified),inactive: > 76.9 µM
12,N#Cc1nc(Cc2cccc3ccccc23)oc1NCC1CCCO1 (stereo unspecified),inactive
13,COc1ccccc1NC(=O)CN(c1ccccc1F)S(C)(=O)=O,inactive: > 76.9 µM
14,Cc1cccc(N(CC(=O)NC2CCCC2)C(=O)CS(=O)CC(=O)Nc2ccc3c(c2)OCO3)c1 (stereo unspecified),inactive: > 76.9 µM
15,CC(C)CNC(=O)COC(=O)c1cc(S(=O)(=O)N2CCCCC2)ccc1N1CCOCC1,inactive: > 76.9 µM
16,COc1cc2c(cc1OC)CN(C(=O)c1cc(S(=O)(=O)N3CCOCC3)ccc1Cl)CC2,inactive: > 76.9 µM
17,CC1Cc2ccccc2N1S(=O)(=O)c1cccc(C(=O)NCCCO)c1 (stereo unspecified),inactive: > 76.9 µM
18,CCOc1ccc(C(=O)Nc2c(C(N)=O)oc3ccccc23)cc1,inactive
19,Cn1nc(-c2ccc(N3CCOCC3)c(NC(=O)c3ccccc3)c2)c2ccccc2c1=O,inactive: > 76.9 µM
20,COc1ccc2c(c1)CCc1c(C(=O)N3CCCCCC3)noc1-2,inactive: > 76.9 µM
21,CCOC(=O)c1sc(=S)n(CC)c1NC(=O)C1CC1,inactive: > 76.9 µM
22,COC(=O)c1cccnc1-n1c(=O)c2cccnc2n(Cc2ccc(Cl)cc2)c1=O,inactive: > 76.9 µM
